# Results: the supplement of paper PMC8728848
# The other results are listed elsewhere or left out.
# B1: SSP1 (Sclerotinia sclerotiorum), XP_001584968 (protein)
# chain: MGSSHHHHHHSSGLVPRGSHMSLLTTELACTSAPDQVLHLFFQDGQNILEARSPDGGNVWTTQDTIIAKDGDYNGSSMTCYYVDKDANFDNQPSIHLLYMNKDKQLTEKVKRMKGDNPIWEDAKVPDEVRKGPEQYSKLTSGSFNQGTGWNPNGSQWAYFSASKDGKMGIVEIRRTPKDPWHTETILEEKWGDELPGTALACVIGNGKIRVFLQHHDYSIILYENQNNTWHDRGTFIPKDKVQATTPLACTMTKDGSVHLFYVSKSNKIIHCTDGKKEEELINFFPGSKLGATSVENKITLFFRNLNPVNEVGTLENENGSWKHGTTVIPA
# Tests used:
# Assay in all cases: glycan array binding signal (z-score within array); higher = stronger binding
# Details in all cases: glycan notation: IUPAC condensed, linker removed
# [1] = target: Fuc(a1-2)Gal6S(b1-3)GlcNAc
# Summary of the method: (§1)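 The Consortium for Functional Glycomics database supplied 3228 glycan arrays, of which those lacking an available protein sequence were dropped. The binding signal, a within-array Z-score, was averaged across arrays of the same protein sequence and across linkers. Negative scores can be read as non-binding.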
# [2] = target: Fuc(a1-2)Gal6S(b1-3)GlcNAc6S
# Summary of the method: as §1
# [3] = target: Fuc(a1-2)Gal6S(b1-4)Glc
# Summary of the method: as §1
# [4] = target: Fuc(a1-2)Gal6S(b1-4)Glc6S
# Summary of the method: as §1
# [5] = target: Fuc(a1-2)[Gal(a1-3)]Gal
# Summary of the method: as §1
# [6] = target: Fuc(a1-2)[Gal(a1-3)]Gal(b1-3)GalNAc
# Summary of the method: as §1
# [7] = target: Fuc(a1-2)[Gal(a1-3)]Gal(b1-3)GalNAc(b1-3)Gal(a1-4)Gal(b1-4)Glc
# Summary of the method: as §1
# [8] = target: Fuc(a1-2)[Gal(a1-3)]Gal(b1-3)GlcNAc
# Summary of the method: as §1
# [9] = target: Fuc(a1-2)[Gal(a1-3)]Gal(b1-3)GlcNAc(b1-2)Man(a1-3)[Fuc(a1-2)[Gal(a1-3)]Gal(b1-3)GlcNAc(b1-2)Man(a1-6)]Man(b1-4)GlcNAc(b1-4)GlcNAc
# Summary of the method: as §1
# [10] = target: Fuc(a1-2)[Gal(a1-3)]Gal(b1-3)GlcNAc(b1-2)Man(a1-3)[Fuc(a1-2)[Gal(a1-3)]Gal(b1-3)GlcNAc(b1-2)Man(a1-6)]Man(b1-4)GlcNAc(b1-4)[Fuc(a1-6)]GlcNAc
# Summary of the method: as §1
# [11] = target: Fuc(a1-2)[Gal(a1-3)]Gal(b1-3)GlcNAc(b1-3)GalNAc
# Summary of the method: as §1
# [12] = target: Fuc(a1-2)[Gal(a1-3)]Gal(b1-3)GlcNAc(b1-6)GalNAc
# Summary of the method: as §1
# [13] = target: Fuc(a1-2)[Gal(a1-3)]Gal(b1-4)Glc
# Summary of the method: as §1
# [14] = target: Fuc(a1-2)[Gal(a1-3)]Gal(b1-4)GlcNAc
# Summary of the method: as §1
# [15] = target: Fuc(a1-2)[Gal(a1-3)]Gal(b1-4)GlcNAc(b1-2)Man
# Summary of the method: as §1
# [16] = target: Fuc(a1-2)[Gal(a1-3)]Gal(b1-4)GlcNAc(b1-2)Man(a1-3)[Fuc(a1-2)[Gal(a1-3)]Gal(b1-4)GlcNAc(b1-2)Man(a1-6)]Man(b1-4)GlcNAc(b1-4)GlcNAc
# Summary of the method: as §1
# [17] = target: Fuc(a1-2)[Gal(a1-3)]Gal(b1-4)GlcNAc(b1-2)Man(a1-3)[Fuc(a1-2)[Gal(a1-3)]Gal(b1-4)GlcNAc(b1-2)Man(a1-6)]Man(b1-4)GlcNAc(b1-4)[Fuc(a1-6)]GlcNAc
# Summary of the method: as §1
# [18] = target: Fuc(a1-2)[Gal(a1-3)]Gal(b1-4)GlcNAc(b1-3)GalNAc
# Summary of the method: as §1
# [19] = target: Fuc(a1-2)[Gal(a1-3)]Gal(b1-4)GlcNAc(b1-3)[Fuc(a1-2)[Gal(a1-3)]Gal(b1-4)GlcNAc(b1-6)]GalNAc
# Summary of the method: as §1
# [20] = target: Fuc(a1-2)[Gal(a1-3)]Gal(b1-4)GlcNAc(b1-6)GalNAc
# Summary of the method: as §1
# [21] = target: Fuc(a1-2)[Gal(a1-3)]Gal(b1-4)[Fuc(a1-3)]Glc
# Summary of the method: as §1
# [22] = target: Fuc(a1-2)[Gal(a1-3)]Gal(b1-4)[Fuc(a1-3)]GlcNAc
# Summary of the method: as §1
# [23] = target: Fuc(a1-2)[Gal(a1-3)]Gal(b1-4)[Fuc(a1-3)]GlcNAc(b1-3)GalNAc
# Summary of the method: as §1
# [24] = target: Fuc(a1-2)[Gal(a1-4)]Gal(b1-4)GlcNAc
# Summary of the method: as §1
# [25] = target: Fuc(a1-2)[GalNAc(a1-3)]Gal
# Summary of the method: as §1
# [26] = target: Fuc(a1-2)[GalNAc(a1-3)]Gal(b1-3)GalNAc(a1-3)[Fuc(a1-2)]Gal(b1-4)GlcNAc
# Summary of the method: as §1
# [27] = target: Fuc(a1-2)[GalNAc(a1-3)]Gal(b1-3)GalNAc(b1-3)Gal(a1-4)Gal(b1-4)Glc
# Summary of the method: as §1
# [28] = target: Fuc(a1-2)[GalNAc(a1-3)]Gal(b1-3)GlcNAc
# Summary of the method: as §1
# [29] = target: Fuc(a1-2)[GalNAc(a1-3)]Gal(b1-3)GlcNAc(b1-2)Man(a1-3)[Fuc(a1-2)[GalNAc(a1-3)]Gal(b1-3)GlcNAc(b1-2)Man(a1-6)]Man(b1-4)GlcNAc(b1-4)GlcNAc
# Summary of the method: as §1
# [30] = target: Fuc(a1-2)[GalNAc(a1-3)]Gal(b1-3)GlcNAc(b1-2)Man(a1-3)[Fuc(a1-2)[GalNAc(a1-3)]Gal(b1-3)GlcNAc(b1-2)Man(a1-6)]Man(b1-4)GlcNAc(b1-4)[Fuc(a1-6)]GlcNAc
# Summary of the method: as §1
# [31] = target: Fuc(a1-2)[GalNAc(a1-3)]Gal(b1-3)GlcNAc(b1-3)GalNAc
# Summary of the method: as §1
# [32] = target: Fuc(a1-2)[GalNAc(a1-3)]Gal(b1-3)GlcNAc(b1-6)GalNAc
# Summary of the method: as §1
# [33] = target: Fuc(a1-2)[GalNAc(a1-3)]Gal(b1-4)Glc
# Summary of the method: as §1
# [34] = target: Fuc(a1-2)[GalNAc(a1-3)]Gal(b1-4)GlcNAc
# Summary of the method: as §1
# [35] = target: Fuc(a1-2)[GalNAc(a1-3)]Gal(b1-4)GlcNAc(b1-2)Man
# Summary of the method: as §1
# [36] = target: Fuc(a1-2)[GalNAc(a1-3)]Gal(b1-4)GlcNAc(b1-2)Man(a1-3)[Fuc(a1-2)[GalNAc(a1-3)]Gal(b1-4)GlcNAc(b1-2)Man(a1-6)]Man(b1-4)GlcNAc(b1-4)GlcNAc
# Summary of the method: as §1
# [37] = target: Fuc(a1-2)[GalNAc(a1-3)]Gal(b1-4)GlcNAc(b1-2)Man(a1-3)[Fuc(a1-2)[GalNAc(a1-3)]Gal(b1-4)GlcNAc(b1-2)Man(a1-6)]Man(b1-4)GlcNAc(b1-4)[Fuc(a1-6)]GlcNAc
# Summary of the method: as §1
# [38] = target: Fuc(a1-2)[GalNAc(a1-3)]Gal(b1-4)GlcNAc(b1-3)Gal(b1-4)GlcNAc
# Summary of the method: as §1
# [39] = target: Fuc(a1-2)[GalNAc(a1-3)]Gal(b1-4)GlcNAc(b1-3)Gal(b1-4)GlcNAc(b1-3)Gal(b1-4)GlcNAc
# Summary of the method: as §1
# [40] = target: Fuc(a1-2)[GalNAc(a1-3)]Gal(b1-4)GlcNAc(b1-3)GalNAc
# Summary of the method: as §1
# [41] = target: Fuc(a1-2)[GalNAc(a1-3)]Gal(b1-4)GlcNAc(b1-3)[Fuc(a1-2)[GalNAc(a1-3)]Gal(b1-4)GlcNAc(b1-6)]GalNAc
# Summary of the method: as §1
# [42] = target: Fuc(a1-2)[GalNAc(a1-3)]Gal(b1-4)GlcNAc(b1-6)GalNAc
# Summary of the method: as §1
# [43] = target: Fuc(a1-2)[GalNAc(a1-3)]Gal(b1-4)[Fuc(a1-3)]GlcNAc
# Summary of the method: as §1
# [44] = target: Fuc(a1-2)[GalNAc(a1-3)]Gal(b1-4)[Fuc(a1-3)]GlcNAc(b1-3)GalNAc
# Summary of the method: as §1
# [45] = target: Fuc(a1-2)[GalNAc(a1-4)]Gal(b1-4)GlcNAc
# Summary of the method: as §1
binder,measurement,setting,value
B1,glycan array binding signal (z-score),[1],-0.225
same,glycan array binding signal (z-score),[2],0.182
same,glycan array binding signal (z-score),[3],-0.629
same,glycan array binding signal (z-score),[4],0.002
same,glycan array binding signal (z-score),[5],-0.069
same,glycan array binding signal (z-score),[6],-0.001
same,glycan array binding signal (z-score),[7],-0.655
same,glycan array binding signal (z-score),[8],0.084
same,glycan array binding signal (z-score),[9],0.27
same,glycan array binding signal (z-score),[10],0.036
same,glycan array binding signal (z-score),[11],-0.411
same,glycan array binding signal (z-score),[12],7.05
same,glycan array binding signal (z-score),[13],-0.256
same,glycan array binding signal (z-score),[14],0.187
same,glycan array binding signal (z-score),[15],-0.358
same,glycan array binding signal (z-score),[16],-0.463
same,glycan array binding signal (z-score),[17],0.111
same,glycan array binding signal (z-score),[18],-0.1
same,glycan array binding signal (z-score),[19],0.312
same,glycan array binding signal (z-score),[20],-0.15
same,glycan array binding signal (z-score),[21],-0.518
same,glycan array binding signal (z-score),[22],-0.327
same,glycan array binding signal (z-score),[23],-0.518
same,glycan array binding signal (z-score),[24],0.208
same,glycan array binding signal (z-score),[25],0.125
same,glycan array binding signal (z-score),[26],-0.669
same,glycan array binding signal (z-score),[27],-0.154
same,glycan array binding signal (z-score),[28],-0.089
same,glycan array binding signal (z-score),[29],-0.434
same,glycan array binding signal (z-score),[30],0.012
same,glycan array binding signal (z-score),[31],-0.311
same,glycan array binding signal (z-score),[32],-0.402
same,glycan array binding signal (z-score),[33],-0.511
same,glycan array binding signal (z-score),[34],-0.335
same,glycan array binding signal (z-score),[35],-0.01
same,glycan array binding signal (z-score),[36],-0.163
same,glycan array binding signal (z-score),[37],-0.493
same,glycan array binding signal (z-score),[38],-0.225
same,glycan array binding signal (z-score),[39],0.298
same,glycan array binding signal (z-score),[40],-0.539
same,glycan array binding signal (z-score),[41],-0.083
same,glycan array binding signal (z-score),[42],-0.687
same,glycan array binding signal (z-score),[43],-0.096
same,glycan array binding signal (z-score),[44],-0.315
same,glycan array binding signal (z-score),[45],-0.335
